Consider 42 compounds from ChEMBL document CHEMBL4888484, “Replenishing the malaria drug discovery pipeline: Screening and hit evaluation of the MMV Hit Generation Library 1 (HGL1) against asexual blood stage Plasmodium falciparum ,using a nano luciferase reporter read-out” (2022).

The structures appear in SMILES notation. In all, about 150,000 compounds went through this assay and about 540 (0.36%) showed an effect of 50% or more. The list shows a part of the results.

In the assay the test system is Plasmodium falciparum. Briefly: Primary screen in NF54 nanoGlo assay, in single point, at 2uM, 72h; a lower Z score goes with more inhibition. In kind it is functional, Erythrocyte. Conditions: timepoint 72 hour.
The % Inhibition is the relative decrease from the control value, in per cent. Turning to `COc1c2ccoc2nc2c(OC)c(OC3OC(C)C(O)C(O)C3O)ccc12` (centres undefined), the “% Inhibition” value was -5% and the Z score is 0.66.
As to `COc1cccc([C@H](CN2CCN(S(=O)(=O)c3ccc(F)c(Cl)c3)CC2)OCc2ccc(C)cc2)c1`, the “% Inhibition” value was -8% and the Z score is reported as 1.2.
As for `CC(C)n1ncc2c(C(=O)N3CCc4ccccc43)cc(-c3ccc4c(c3)OCCO4)nc21`, the “% Inhibition” value is -15% and the Z score amounted to 1.38.
For `CN(Cc1cnn(C)c1)C(=O)c1cc(Cl)c(Cl)n1C`, the “% Inhibition” value was -2% and the Z score stood at 0.48.
`O=C1N[C@H]2CCC[C@H]2C(=O)N1CCc1ccccn1`: the “% Inhibition” value is recorded as -7% and the Z score is 1.04.
For `CCC1(CC)CN(C(=O)[C@H](C)c2cccs2)CCS1(=O)=O` the same measures were 4% and -0.62.
On to `CC[C@@H](CNC(=O)c1cc2cccc(Cl)c2n1C)N1CCOCC1`, for which the “% Inhibition” value is given as -3% and the Z score came out at 0.52.
On the same counts, the results for `O=C(c1ccoc1)N1CCn2nccc2C1` are -12% and 1.88.
`COC(C)(C)CCNC(=O)c1cccc2c1CCC2=O`: the “% Inhibition” value was 9% and the Z score was -1.67.
For `CCc1ccc(C(=O)N2CCN(C(=O)c3cccc(OC)c3)CC2)[nH]1`, the “% Inhibition” value is -13% and the Z score is recorded as 1.87.
`CC(=O)N1CC(C(=O)NCCc2ccccn2)CCC1c1ccc(F)c(C)c1` (centres undefined): the “% Inhibition” value is reported as 3% and the Z score is given as -0.31.
Consider `Cn1ncnc1CNC1(c2cc(C(F)(F)F)ccc2Cl)CC1`, for which the “% Inhibition” value was found to be 6% and the Z score was -1.16.
On the same counts, the results for `O=S(=O)(Nc1ccccc1-c1cn2c(n1)CCCC2)c1ccc(-n2cccn2)cc1` are -4% and 0.46.
Consider `CCCNC(=O)[C@H](C)NC(=O)Nc1ccc(F)cc1C`, for which the “% Inhibition” value is -11% and the Z score is given as 2.07.
For `COc1cccnc1CNC(=O)[C@@H]1CCCc2[nH]ncc21` the same measures were -4% and 0.46.
As to `Cc1ccc(N2C(=O)c3[nH]nc(-c4ccc(Br)cc4)c3[C@@H]2c2ccco2)cc1`, the “% Inhibition” value was -12% and the Z score turned out to be 1.8.
For `CCCc1nc(N[C@H](c2nccn2C)C(C)C)c2cnn(C)c2n1` the same measures were 2% and -0.41.
For `COc1ccc(C(=O)N2CCC3(CC2)[C@@H](OC)CN3c2ccc(C)cc2)cn1` the same measures were -2% and 0.35.
`Cc1[nH]c2nc(C(=O)N3CCC(C)CC3)nn2c(=O)c1Cc1ccccc1`: the “% Inhibition” value is listed as -16% and the Z score stood at 1.84.
Regarding `COc1ccc(-c2nn(-c3ccccc3)cc2CC(=O)N2CC[C@H](N)C2)cc1`, the “% Inhibition” value was 35% and the Z score was -3.52.
As to `C#Cc1cccc(NC(=O)N[C@@H](C)CO)c1`, the “% Inhibition” value was found to be 4% and the Z score is listed as -0.37.
With `CCCN1CC2(CCN(Cc3ccc(C)cc3F)CC2)C[C@H]1C(=O)O`, the “% Inhibition” value is recorded as -8% and the Z score is listed as 0.91.
For `CCc1ccsc1C(=O)N(CCOC)[C@@H](C)C(N)=O` the same measures were -2% and 0.28.
For `CC(O)CN(C)c1cc(N(C)CC(C)O)nc(-c2ccccc2)n1` (centres undefined), the “% Inhibition” value was -13% and the Z score was found to be 1.24.
For the compound `Cc1ccc(NC(=O)Cn2c(N3CCN(c4ccccc4)CC3)nc(C)cc2=O)c(C)c1`, the “% Inhibition” value is listed as -26% and the Z score was 2.33.
Consider `Cc1ccc(C)c(N2CCN(CCCNC(=O)C3CCN(c4ccc5nnc(C)n5n4)CC3)CC2)c1`, for which the “% Inhibition” value is 15% and the Z score is recorded as -2.21.
On to `COc1ccccc1CCNC(=O)c1nc(-c2cnccn2)no1`, for which the “% Inhibition” value is -12% and the Z score was 1.73.
Take `CCCN(C(=O)Nc1cc(C)cc(F)c1)[C@H]1CCCC[C@@H]1O`: the “% Inhibition” value is -13% and the Z score is on record as 1.18.
With `CCc1n[nH]cc1C(=O)N[C@H]1CCOC[C@@H]1OCc1c(C)noc1C`, the “% Inhibition” value was -11% and the Z score was determined as 1.74.
Regarding `CCCn1nc(C(=O)O)c2c1CC[C@H](N(C)CCN(C)C)C2`, the “% Inhibition” value is reported as -8% and the Z score came out at 0.75.
With `CCc1nc(N2CCC[C@H](COc3ccc(F)cc3)C2)no1`, the “% Inhibition” value is given as -2% and the Z score is 0.25.
Turning to `O=C1C[C@H](N2CCc3sccc3C2)C(=O)N1CCc1ccccc1`, the “% Inhibition” value is listed as -3% and the Z score was found to be 0.45.
Turning to `Cc1cnc(C2CN(C(=O)Nc3ccccc3)C2)n1CC1CC1`, the “% Inhibition” value is -13% and the Z score came out at 1.65.
For the compound `C#CC(C)(C)N(C)S(=O)(=O)c1ccc(OC)nc1`, the “% Inhibition” value is -6% and the Z score was 0.82.
Turning to `COc1ccc(COc2ccc(=O)n(-c3ccc(C(=O)N4CCCCCC4)cc3)n2)cc1`, the “% Inhibition” value is -22% and the Z score is given as 3.92.
Turning to `COc1ccc(F)c(F)c1CN1CC[C@@]2(O)CCCC[C@H]2C1`, the “% Inhibition” value is listed as -7% and the Z score stood at 1.05.
Regarding `O=C(NCc1ccnc(OC2CCC2)c1)c1cc(F)c(O)c(F)c1`, the “% Inhibition” value is -8% and the Z score is 0.74.
On the same counts, the results for `O=C(Cn1nccn1)Nc1cc(-c2ccccc2Br)n[nH]1` are -2% and 0.27.
For the compound `C[C@@H](CC(=O)N1CC(N2CCNC2=O)C1)C(=O)c1ccccc1`, the “% Inhibition” value is -2% and the Z score worked out at 0.24.
Regarding `CC[C@@H](CO)N1CCN(CC2(CCOC)CCCCC2)CC1`, the “% Inhibition” value is reported as -1% and the Z score amounted to 0.11.
`Cc1ncc(NC(=O)C2CN(C3CCCCC3)C2)cn1`: the “% Inhibition” value is given as -6% and the Z score is reported as 0.62.
For `O=C(Cc1cccc(F)c1)Nc1ccc2c(c1)OCCCO2`, the “% Inhibition” value was -5% and the Z score stood at 0.49.
